Measurements taken from publication PMC4565672.
Results are given in words; binding and its absence hold for the method and conditions named. Binding seen in cells or lysates may run through a third protein. Some entries that bind do so weakly or less than the wild type. For some of these results: Sequences can lack the tags named with a protein.

Protein sequences, listed by entry. Tags and fused reporters are not part of them. Lines headed by an entry give the natural chain unless they say otherwise; changes in a name come on top. Residues count along the entry.
UniProt Q5S007: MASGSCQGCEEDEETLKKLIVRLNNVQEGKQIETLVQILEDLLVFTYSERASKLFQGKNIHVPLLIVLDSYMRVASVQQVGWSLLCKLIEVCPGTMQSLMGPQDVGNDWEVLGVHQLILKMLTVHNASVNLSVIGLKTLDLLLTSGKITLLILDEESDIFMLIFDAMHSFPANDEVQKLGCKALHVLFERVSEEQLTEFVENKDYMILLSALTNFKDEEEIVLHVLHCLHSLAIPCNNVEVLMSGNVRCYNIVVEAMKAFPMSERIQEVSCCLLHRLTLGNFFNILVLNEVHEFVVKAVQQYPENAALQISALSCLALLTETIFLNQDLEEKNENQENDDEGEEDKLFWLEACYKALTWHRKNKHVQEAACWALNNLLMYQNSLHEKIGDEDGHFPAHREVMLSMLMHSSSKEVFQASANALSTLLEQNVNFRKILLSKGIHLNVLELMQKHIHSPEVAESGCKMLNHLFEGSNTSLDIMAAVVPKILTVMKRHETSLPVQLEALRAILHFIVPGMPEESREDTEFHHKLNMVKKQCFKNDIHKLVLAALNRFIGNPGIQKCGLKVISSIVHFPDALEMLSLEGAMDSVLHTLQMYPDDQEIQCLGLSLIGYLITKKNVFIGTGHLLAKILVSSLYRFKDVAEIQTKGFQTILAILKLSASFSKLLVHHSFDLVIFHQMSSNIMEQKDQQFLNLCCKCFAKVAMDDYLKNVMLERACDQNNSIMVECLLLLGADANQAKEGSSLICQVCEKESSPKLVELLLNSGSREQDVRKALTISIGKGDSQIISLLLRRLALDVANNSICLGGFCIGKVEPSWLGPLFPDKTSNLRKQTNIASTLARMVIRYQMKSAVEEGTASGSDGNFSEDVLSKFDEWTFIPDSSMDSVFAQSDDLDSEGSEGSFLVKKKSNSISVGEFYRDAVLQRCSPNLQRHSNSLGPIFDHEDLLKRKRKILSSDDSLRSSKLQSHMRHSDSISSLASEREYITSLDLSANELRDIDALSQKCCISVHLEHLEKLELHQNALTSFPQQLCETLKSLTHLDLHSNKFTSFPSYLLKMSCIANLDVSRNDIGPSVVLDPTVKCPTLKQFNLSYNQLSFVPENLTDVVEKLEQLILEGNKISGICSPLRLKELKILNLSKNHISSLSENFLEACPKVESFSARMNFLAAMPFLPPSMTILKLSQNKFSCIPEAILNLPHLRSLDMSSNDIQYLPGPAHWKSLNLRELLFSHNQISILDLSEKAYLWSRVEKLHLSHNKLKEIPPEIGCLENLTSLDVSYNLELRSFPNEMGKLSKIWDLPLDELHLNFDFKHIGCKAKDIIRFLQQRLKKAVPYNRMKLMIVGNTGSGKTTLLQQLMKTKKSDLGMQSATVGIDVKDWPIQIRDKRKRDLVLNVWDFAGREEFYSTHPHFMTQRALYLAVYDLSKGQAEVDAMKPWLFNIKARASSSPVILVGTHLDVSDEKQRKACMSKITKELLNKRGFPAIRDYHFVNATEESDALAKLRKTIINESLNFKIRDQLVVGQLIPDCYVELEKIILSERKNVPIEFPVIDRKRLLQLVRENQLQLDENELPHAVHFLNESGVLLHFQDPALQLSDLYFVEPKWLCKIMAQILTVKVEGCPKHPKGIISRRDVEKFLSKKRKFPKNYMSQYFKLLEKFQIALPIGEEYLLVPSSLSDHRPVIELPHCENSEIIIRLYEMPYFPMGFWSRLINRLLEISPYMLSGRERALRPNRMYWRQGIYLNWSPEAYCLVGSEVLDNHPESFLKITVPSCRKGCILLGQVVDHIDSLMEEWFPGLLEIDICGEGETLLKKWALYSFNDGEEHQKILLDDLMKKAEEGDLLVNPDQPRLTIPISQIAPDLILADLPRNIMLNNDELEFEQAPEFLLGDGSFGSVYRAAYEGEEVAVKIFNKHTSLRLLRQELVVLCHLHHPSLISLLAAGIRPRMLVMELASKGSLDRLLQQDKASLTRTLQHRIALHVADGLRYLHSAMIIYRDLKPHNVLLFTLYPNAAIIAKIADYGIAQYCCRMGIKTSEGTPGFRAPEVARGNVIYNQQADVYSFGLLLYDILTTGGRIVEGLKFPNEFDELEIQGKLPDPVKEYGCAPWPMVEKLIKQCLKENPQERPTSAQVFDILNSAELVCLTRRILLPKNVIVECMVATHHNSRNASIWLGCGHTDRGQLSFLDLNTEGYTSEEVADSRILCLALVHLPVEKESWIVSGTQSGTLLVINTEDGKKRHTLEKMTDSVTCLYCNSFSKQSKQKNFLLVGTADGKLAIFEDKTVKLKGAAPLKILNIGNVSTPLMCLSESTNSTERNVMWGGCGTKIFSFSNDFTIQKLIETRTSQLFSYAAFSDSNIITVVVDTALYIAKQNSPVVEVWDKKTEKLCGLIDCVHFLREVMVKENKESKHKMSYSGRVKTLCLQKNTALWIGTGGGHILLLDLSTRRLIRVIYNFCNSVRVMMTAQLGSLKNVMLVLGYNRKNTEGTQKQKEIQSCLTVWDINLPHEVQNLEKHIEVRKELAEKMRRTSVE
UniProt Q96JN8: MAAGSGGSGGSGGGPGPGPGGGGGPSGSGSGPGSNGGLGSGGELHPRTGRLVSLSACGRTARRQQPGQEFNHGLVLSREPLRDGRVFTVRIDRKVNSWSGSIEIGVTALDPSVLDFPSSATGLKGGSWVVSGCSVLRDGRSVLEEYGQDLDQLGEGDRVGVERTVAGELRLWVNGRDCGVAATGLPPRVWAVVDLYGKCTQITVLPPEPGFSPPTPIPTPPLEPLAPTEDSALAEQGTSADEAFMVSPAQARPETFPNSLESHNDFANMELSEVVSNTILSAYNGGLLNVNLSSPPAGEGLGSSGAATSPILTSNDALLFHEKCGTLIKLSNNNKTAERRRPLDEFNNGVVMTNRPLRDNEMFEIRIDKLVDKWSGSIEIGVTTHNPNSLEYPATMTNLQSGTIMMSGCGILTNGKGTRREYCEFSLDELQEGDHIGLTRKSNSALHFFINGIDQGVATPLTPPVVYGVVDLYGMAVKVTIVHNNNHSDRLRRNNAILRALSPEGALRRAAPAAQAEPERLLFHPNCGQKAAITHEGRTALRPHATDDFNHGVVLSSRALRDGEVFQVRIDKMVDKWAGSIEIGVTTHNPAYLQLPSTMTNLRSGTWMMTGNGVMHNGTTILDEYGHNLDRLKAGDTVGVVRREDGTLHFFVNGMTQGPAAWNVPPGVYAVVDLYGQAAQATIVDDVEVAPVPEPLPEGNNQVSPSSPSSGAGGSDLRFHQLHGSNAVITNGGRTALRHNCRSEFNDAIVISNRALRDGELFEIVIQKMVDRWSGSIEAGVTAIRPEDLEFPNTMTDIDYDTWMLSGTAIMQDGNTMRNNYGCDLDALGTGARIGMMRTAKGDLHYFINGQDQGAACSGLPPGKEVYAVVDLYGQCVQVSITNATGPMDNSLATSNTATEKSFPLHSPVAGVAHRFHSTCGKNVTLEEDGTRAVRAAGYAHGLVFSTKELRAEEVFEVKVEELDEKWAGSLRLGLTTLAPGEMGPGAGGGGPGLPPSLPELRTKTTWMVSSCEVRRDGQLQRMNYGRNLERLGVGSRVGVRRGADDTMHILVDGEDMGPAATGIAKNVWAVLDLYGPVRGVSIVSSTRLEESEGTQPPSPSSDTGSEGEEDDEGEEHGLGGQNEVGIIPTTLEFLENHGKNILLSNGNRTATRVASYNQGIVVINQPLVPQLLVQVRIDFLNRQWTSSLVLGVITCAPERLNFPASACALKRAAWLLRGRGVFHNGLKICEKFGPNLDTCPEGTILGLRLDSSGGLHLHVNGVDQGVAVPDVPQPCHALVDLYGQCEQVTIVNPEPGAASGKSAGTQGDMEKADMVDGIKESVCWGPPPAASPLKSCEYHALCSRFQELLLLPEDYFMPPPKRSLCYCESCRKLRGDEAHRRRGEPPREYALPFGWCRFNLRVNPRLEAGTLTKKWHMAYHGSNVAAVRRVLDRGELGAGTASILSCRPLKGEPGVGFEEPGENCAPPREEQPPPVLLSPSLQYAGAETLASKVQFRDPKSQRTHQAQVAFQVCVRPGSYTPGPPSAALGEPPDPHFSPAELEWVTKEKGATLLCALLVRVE
UniProt P97677, residues 18-714: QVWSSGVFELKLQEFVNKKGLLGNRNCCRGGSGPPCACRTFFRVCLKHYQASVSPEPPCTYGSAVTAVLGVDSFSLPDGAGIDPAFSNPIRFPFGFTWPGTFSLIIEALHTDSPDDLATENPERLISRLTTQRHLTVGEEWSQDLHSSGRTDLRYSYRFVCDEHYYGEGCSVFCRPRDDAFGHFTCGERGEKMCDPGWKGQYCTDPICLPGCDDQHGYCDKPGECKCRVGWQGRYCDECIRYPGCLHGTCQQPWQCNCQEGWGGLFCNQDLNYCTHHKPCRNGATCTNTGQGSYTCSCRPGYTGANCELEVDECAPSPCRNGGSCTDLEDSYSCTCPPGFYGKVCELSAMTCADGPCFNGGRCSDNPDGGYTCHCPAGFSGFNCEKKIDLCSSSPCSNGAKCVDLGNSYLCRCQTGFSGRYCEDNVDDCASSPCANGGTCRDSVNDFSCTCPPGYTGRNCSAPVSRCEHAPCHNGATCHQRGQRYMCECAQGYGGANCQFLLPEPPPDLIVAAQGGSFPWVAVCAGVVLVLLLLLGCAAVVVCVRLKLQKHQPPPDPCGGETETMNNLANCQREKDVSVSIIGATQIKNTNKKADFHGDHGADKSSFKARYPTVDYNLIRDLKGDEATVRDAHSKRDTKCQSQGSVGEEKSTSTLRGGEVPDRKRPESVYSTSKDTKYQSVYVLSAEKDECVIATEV
UniProt Q5NCX5: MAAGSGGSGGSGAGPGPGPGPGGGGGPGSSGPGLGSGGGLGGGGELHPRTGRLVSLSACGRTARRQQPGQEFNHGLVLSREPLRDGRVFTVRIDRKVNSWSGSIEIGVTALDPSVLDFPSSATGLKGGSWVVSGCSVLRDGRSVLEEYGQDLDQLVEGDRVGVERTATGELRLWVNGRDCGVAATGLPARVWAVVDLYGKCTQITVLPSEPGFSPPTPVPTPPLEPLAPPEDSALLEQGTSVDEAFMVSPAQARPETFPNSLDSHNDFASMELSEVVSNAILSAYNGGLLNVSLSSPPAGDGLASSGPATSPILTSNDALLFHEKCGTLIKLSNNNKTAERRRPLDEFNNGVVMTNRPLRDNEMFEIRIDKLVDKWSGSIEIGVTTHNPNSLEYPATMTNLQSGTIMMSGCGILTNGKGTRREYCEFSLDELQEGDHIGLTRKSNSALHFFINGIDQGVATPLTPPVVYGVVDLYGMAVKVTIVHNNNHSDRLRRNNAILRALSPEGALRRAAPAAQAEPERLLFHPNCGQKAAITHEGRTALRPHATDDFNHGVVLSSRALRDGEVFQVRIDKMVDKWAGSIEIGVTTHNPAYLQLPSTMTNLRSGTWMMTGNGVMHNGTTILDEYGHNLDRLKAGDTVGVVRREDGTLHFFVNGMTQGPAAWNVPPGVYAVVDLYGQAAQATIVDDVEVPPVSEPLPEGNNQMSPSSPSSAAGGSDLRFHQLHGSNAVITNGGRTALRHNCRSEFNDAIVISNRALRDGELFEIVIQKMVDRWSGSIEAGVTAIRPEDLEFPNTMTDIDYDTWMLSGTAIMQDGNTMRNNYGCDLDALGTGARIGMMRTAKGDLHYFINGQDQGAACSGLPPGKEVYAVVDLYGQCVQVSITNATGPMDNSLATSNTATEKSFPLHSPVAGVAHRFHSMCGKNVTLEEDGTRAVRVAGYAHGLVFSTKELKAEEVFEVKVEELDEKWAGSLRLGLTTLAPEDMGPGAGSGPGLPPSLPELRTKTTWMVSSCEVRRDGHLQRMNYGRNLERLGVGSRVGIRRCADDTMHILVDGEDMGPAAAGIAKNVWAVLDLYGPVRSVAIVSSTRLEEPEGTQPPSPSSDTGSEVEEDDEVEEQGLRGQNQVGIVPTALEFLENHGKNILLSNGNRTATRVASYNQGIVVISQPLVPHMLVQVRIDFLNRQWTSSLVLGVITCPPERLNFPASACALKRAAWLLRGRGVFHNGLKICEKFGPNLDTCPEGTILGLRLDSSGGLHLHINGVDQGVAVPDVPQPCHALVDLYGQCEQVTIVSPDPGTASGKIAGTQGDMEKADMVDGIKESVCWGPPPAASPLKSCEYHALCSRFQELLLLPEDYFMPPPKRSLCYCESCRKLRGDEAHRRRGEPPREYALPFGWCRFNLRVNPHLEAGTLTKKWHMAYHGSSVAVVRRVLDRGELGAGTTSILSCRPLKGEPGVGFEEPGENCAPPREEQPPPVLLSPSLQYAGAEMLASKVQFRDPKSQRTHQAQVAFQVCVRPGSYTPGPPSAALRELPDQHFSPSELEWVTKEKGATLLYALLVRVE

What was measured:
[1] = biological target: FLAG-tagged human LRRK2 (wild type) (human) (UniProt Q5S007); assay: co-IP; HEK293T cells transfected with the indicated plasmids; RIPA buffer; anti-FLAG gel, 4°C for 3 h, five washes, eluted with 3x FLAG peptide; Western blotting
[2] = biological target: FLAG-LRRK2 R1398L (human) (UniProt Q5S007); assay: as above
[3] = biological target: FLAG-LRRK2 T1348N (human) (UniProt Q5S007); assay: as above
[4] = biological target: FLAG-LRRK2 R1441G (human) (UniProt Q5S007); assay: as above
[5] = biological target: FLAG-LRRK2 G2019S (human) (UniProt Q5S007); assay: as above
LKB1-FLAG = biological target: T1, LKB1-FLAG (UniProt Q15831); assay: as above
T1 sequence: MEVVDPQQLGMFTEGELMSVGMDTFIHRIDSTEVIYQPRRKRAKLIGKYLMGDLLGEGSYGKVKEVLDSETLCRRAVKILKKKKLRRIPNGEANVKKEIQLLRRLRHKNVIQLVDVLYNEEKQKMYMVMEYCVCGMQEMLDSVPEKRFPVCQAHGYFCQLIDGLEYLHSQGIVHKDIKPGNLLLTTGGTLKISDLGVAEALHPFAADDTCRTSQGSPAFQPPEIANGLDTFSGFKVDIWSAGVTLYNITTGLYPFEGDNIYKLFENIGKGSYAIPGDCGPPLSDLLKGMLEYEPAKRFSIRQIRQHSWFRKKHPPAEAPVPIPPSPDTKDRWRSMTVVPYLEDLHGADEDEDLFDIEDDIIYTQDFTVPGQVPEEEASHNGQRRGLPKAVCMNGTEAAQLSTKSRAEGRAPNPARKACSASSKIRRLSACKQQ

[6] = biological target: NEURL4 (transfected; tag not told for these experiments) (UniProt Q96JN8); assay: as above
[7] = biological target: LRRK2 (endogenous, mouse brain) (mouse (endogenous in brain)) (UniProt Q5S006); assay: co-IP; mouse brain lysates; immunoprecipitation with anti-LRRK2 (control: anti-dFoxO); Western blotting of endogenous proteins
[8] = biological target: Delta-like 1 (Dll1), rat (rat) (UniProt P97677); assay: co-IP; HEK293T cells transfected with the indicated plasmids; RIPA buffer; anti-FLAG gel, 4°C for 3 h, five washes, eluted with 3x FLAG peptide; Western blotting

| Substance | binding [1] | binding (LKB1-FLAG) | binding [8] | further results |
| --- | --- | --- | --- | --- |
| Myc-NEURL4 (from UniProt Q96JN8 1-1562) | binds |  |  |  |
| NEURL4 (endogenous, HEK293 cells) (from UniProt Q96JN8 1-1562) | binds | no binding |  | binding [2]: binds; binding [3]: binds; binding [4]: binds; binding [5]: binds |
| HERC2 (endogenous, HEK293 cells) (from UniProt O95714 1-4834) |  | no binding |  | binding [6]: binds |
| NEURL4 (endogenous, mouse brain) (from UniProt Q5NCX5 1-1563) |  |  |  | binding [7]: binds |
| NEURL4 (transfected; tag not told for these experiments) (from UniProt Q96JN8 1-1562) | binds |  | binds |  |
| HERC2 (transfected; tag not told) (from UniProt O95714 1-4834) |  |  | binds |  |
